One assay deals with OVCAR4. Nature of the assay: log2 surviving fraction (library drug vs vehicle, or drug + carboplatin vs carboplatin alone; relative to plate median); ovarian cancer lines: OVCAR4 is platinum-sensitive and Ov4Carbo platinum-resistant; higher = more cell survival. The conditions noted are these: library drug concentration 10 µM, 7 days.
Another assay relates to Ov4Carbo. The assay is described as above. The conditions noted are these: library drug concentration 10 µM, 7 days.

Each structure is given as a SMILES string. Structures can show the parent of a compound that is named as a salt. Some of the results follow. Many values rest on one well or one pass, so single values are uncertain.

Turning to `c1ccc(-c2ccc(C(c3ccccc3)n3ccnc3)cc2)cc1` (stereo unspecified) [Bifonazole], the log2 surviving fraction with OVCAR4 (carboplatin co-treatment 0 µM) was -1.75; with OVCAR4 (carboplatin co-treatment 5 µM), -2.13; in the assay with Ov4Carbo (carboplatin co-treatment 0 µM), -1.54; in the assay with Ov4Carbo (carboplatin co-treatment 5 µM), -1.52.

Consider `CCC1=C[C@H]2CN3CCc4c([nH]c5ccccc45)[C@](C(=O)OC)(C2)[C@H]13` [Catharanthine], for which the log2 surviving fraction in the assay on OVCAR4 (carboplatin co-treatment 0 µM) was -1.51; in the assay with OVCAR4 (carboplatin co-treatment 5 µM), -1.27; in the assay with Ov4Carbo (carboplatin co-treatment 0 µM), -0.432; with Ov4Carbo (carboplatin co-treatment 5 µM) it was 0.141.

As to `Nc1ncn([C@@H]2O[C@H](CO)[C@@H](O)[C@H]2O)c(=O)n1` [Azacitidine (Vidaza)], the log2 surviving fraction in the assay on OVCAR4 (carboplatin co-treatment 0 µM) is -5.74; in the assay with OVCAR4 (carboplatin co-treatment 5 µM), -3.04; in the assay with Ov4Carbo (carboplatin co-treatment 0 µM), -2.74; in the assay on Ov4Carbo (carboplatin co-treatment 5 µM) it was -1.14.

Take `C[C@H]1COc2c(N3CCN(C)CC3)c(F)cc3c(=O)c(C(=O)O)cn1c23` [Levofloxacin (Levaquin)]: the log2 surviving fraction with OVCAR4 (carboplatin co-treatment 0 µM) is -0.878; in the assay with OVCAR4 (carboplatin co-treatment 5 µM), -1.24; with Ov4Carbo (carboplatin co-treatment 0 µM), 0.683; in the assay on Ov4Carbo (carboplatin co-treatment 5 µM), -0.0877.

As for `Nc1ccn([C@@H]2CS[C@H](CO)O2)c(=O)n1` [Lamivudine (Epivir)], the log2 surviving fraction is 1.04 in the assay with OVCAR4 (carboplatin co-treatment 0 µM), 0.764 with OVCAR4 (carboplatin co-treatment 5 µM), 0.71 with Ov4Carbo (carboplatin co-treatment 0 µM) and 0.553 in the assay on Ov4Carbo (carboplatin co-treatment 5 µM).

Take `C#Cc1cccc(Nc2ncnc3cc(OCCOC)c(OCCO)cc23)c1` [OSI-420 (Desmethyl Erlotinib)]: the log2 surviving fraction in the assay with OVCAR4 (carboplatin co-treatment 0 µM) was -4.08; in the assay with OVCAR4 (carboplatin co-treatment 5 µM), -1.97; in the assay on Ov4Carbo (carboplatin co-treatment 0 µM), -2.62; in the assay with Ov4Carbo (carboplatin co-treatment 5 µM) it was -3.13.

On to `CN1C[C@@H]2C[C@H]1CN2c1cc2c(cc1F)c(=O)c(C(=O)O)cn2C1CC1` [Danofloxacin Mesylate], for which the log2 surviving fraction in the assay on OVCAR4 (carboplatin co-treatment 0 µM) was 0.788; in the assay with OVCAR4 (carboplatin co-treatment 5 µM) it was -0.24; with Ov4Carbo (carboplatin co-treatment 0 µM) it was 0.485; with Ov4Carbo (carboplatin co-treatment 5 µM) it was -0.286.

On to `CCCc1nc(C)c2c(=O)nc(-c3cc(S(=O)(=O)N4CCN(CC)CC4)ccc3OCC)[nH]n12` [Vardenafil (Vivanza)], for which the log2 surviving fraction is 0.0563 with OVCAR4 (carboplatin co-treatment 0 µM), -0.153 with OVCAR4 (carboplatin co-treatment 5 µM), 0.467 in the assay on Ov4Carbo (carboplatin co-treatment 0 µM) and -0.00405 with Ov4Carbo (carboplatin co-treatment 5 µM).

As for `CCC(C)(C)C(=O)O[C@H]1C[C@@H](C)C=C2C=C[C@H](C)[C@H](CC[C@@H]3C[C@@H](O)CC(=O)O3)[C@H]21` [Simvastatin (Zocor)], the log2 surviving fraction in the assay on OVCAR4 (carboplatin co-treatment 0 µM) was -4.93; in the assay with OVCAR4 (carboplatin co-treatment 5 µM), -3.99; in the assay on Ov4Carbo (carboplatin co-treatment 0 µM) it was -3.22; in the assay on Ov4Carbo (carboplatin co-treatment 5 µM), -7.05.

Take `C[C@H](CCC(=O)O)[C@H]1CC[C@H]2[C@@H]3[C@H](O)C[C@@H]4C[C@H](O)CC[C@]4(C)[C@H]3CC[C@]12C` [Chenodeoxycholic acid]: the log2 surviving fraction is 0.839 in the assay on OVCAR4 (carboplatin co-treatment 0 µM), 0.0766 in the assay on OVCAR4 (carboplatin co-treatment 5 µM), 0.309 in the assay on Ov4Carbo (carboplatin co-treatment 0 µM) and -0.17 in the assay with Ov4Carbo (carboplatin co-treatment 5 µM).

For the compound `CN(C)CC/C=C1/c2ccccc2COc2ccc(CC(=O)O)cc21` [Olopatadine hydrochloride (Opatanol)], the log2 surviving fraction is 0.127 in the assay on OVCAR4 (carboplatin co-treatment 0 µM), 0.193 with OVCAR4 (carboplatin co-treatment 5 µM), -0.429 with Ov4Carbo (carboplatin co-treatment 0 µM) and 0.000628 in the assay with Ov4Carbo (carboplatin co-treatment 5 µM).

For the compound `CCCNC(C)C(=O)Nc1c(C)csc1C(=O)OC` (stereo unspecified) [Articaine HCl], the log2 surviving fraction with OVCAR4 (carboplatin co-treatment 0 µM) was 0.11; in the assay with OVCAR4 (carboplatin co-treatment 5 µM), 0.473; in the assay with Ov4Carbo (carboplatin co-treatment 0 µM), -0.688; in the assay on Ov4Carbo (carboplatin co-treatment 5 µM), -0.422.

Regarding `CC(C)(C)C(=O)C(Oc1ccc(Cl)cc1)n1ccnc1` (stereo unspecified) [Climbazole], the log2 surviving fraction in the assay with OVCAR4 (carboplatin co-treatment 0 µM) is -1.21; with OVCAR4 (carboplatin co-treatment 5 µM), -1.51; with Ov4Carbo (carboplatin co-treatment 0 µM), -0.602; in the assay with Ov4Carbo (carboplatin co-treatment 5 µM), -1.81.

As for `COC(=O)N/N=C/c1c[n+]([O-])c2ccccc2[n+]1[O-]` [Carbadox], the log2 surviving fraction with OVCAR4 (carboplatin co-treatment 0 µM) was -0.0843; in the assay on OVCAR4 (carboplatin co-treatment 5 µM), 0.101; in the assay with Ov4Carbo (carboplatin co-treatment 0 µM) it was 0.791; in the assay on Ov4Carbo (carboplatin co-treatment 5 µM) it was -0.167.

Turning to `C[C@@H]1CCC[C@H](C)N1NC(=O)c1ccc(Cl)c(S(N)(=O)=O)c1` [Clopamide], the log2 surviving fraction is 0.138 with OVCAR4 (carboplatin co-treatment 0 µM), 0.585 in the assay with OVCAR4 (carboplatin co-treatment 5 µM), 0.931 in the assay with Ov4Carbo (carboplatin co-treatment 0 µM) and 0.027 in the assay on Ov4Carbo (carboplatin co-treatment 5 µM).

On to `CC1=CC(=O)c2ccccc2C1=O` [Menadione], for which the log2 surviving fraction is -8.36 with OVCAR4 (carboplatin co-treatment 0 µM), -0.32 in the assay on OVCAR4 (carboplatin co-treatment 5 µM), -0.979 in the assay on Ov4Carbo (carboplatin co-treatment 0 µM) and 0.301 in the assay on Ov4Carbo (carboplatin co-treatment 5 µM).

`C=CC1=C(C(=O)O)N2C(=O)[C@@H](NC(=O)/C(=N\O)c3csc(N)n3)[C@H]2SC1` [Cefdinir (Omnicef)]: the log2 surviving fraction in the assay with OVCAR4 (carboplatin co-treatment 0 µM) was 1.02; in the assay on OVCAR4 (carboplatin co-treatment 5 µM), -0.0956; in the assay on Ov4Carbo (carboplatin co-treatment 0 µM), 1.04; in the assay on Ov4Carbo (carboplatin co-treatment 5 µM) it was 0.000482.

Turning to `CCCc1ncc(C[n+]2ccccc2C)c(N)n1` [Amprolium HCl], the log2 surviving fraction turned out to be 0.906 in the assay with OVCAR4 (carboplatin co-treatment 0 µM), 1.46 in the assay on OVCAR4 (carboplatin co-treatment 5 µM), 0.608 in the assay on Ov4Carbo (carboplatin co-treatment 0 µM) and 0.72 in the assay with Ov4Carbo (carboplatin co-treatment 5 µM).

For `CC[C@H]1OC(=O)C[C@@H](O)[C@H](C)[C@@H](O[C@@H]2O[C@H](C)[C@@H](O[C@H]3C[C@@](C)(O)[C@@H](O)[C@H](C)O3)[C@H](N(C)C)[C@H]2O)[C@@H](CC=O)C[C@@H](C)C(=O)/C=C/C(C)=C/[C@@H]1CO[C@@H]1O[C@H](C)[C@@H](O)[C@@H](OC)[C@H]1OC` [Tylosin tartrate], the log2 surviving fraction in the assay with OVCAR4 (carboplatin co-treatment 0 µM) was -0.137; in the assay with OVCAR4 (carboplatin co-treatment 5 µM) it was 0.495; with Ov4Carbo (carboplatin co-treatment 0 µM), 1.4; in the assay on Ov4Carbo (carboplatin co-treatment 5 µM), 1.25.

For `C[N+](C)(C)CCCCCC[N+](C)(C)C` [Hexamethonium bromide], the log2 surviving fraction was 0.424 in the assay on OVCAR4 (carboplatin co-treatment 0 µM), 0.156 in the assay on OVCAR4 (carboplatin co-treatment 5 µM), 0.0826 in the assay with Ov4Carbo (carboplatin co-treatment 0 µM) and -0.962 in the assay with Ov4Carbo (carboplatin co-treatment 5 µM).

Consider `CC1=C(/C=C/C(C)=C/C=C/C(C)=C\C(=O)O)C(C)(C)CCC1` [Isotretinoin], for which the log2 surviving fraction was -1.32 in the assay on OVCAR4 (carboplatin co-treatment 0 µM), -1.82 with OVCAR4 (carboplatin co-treatment 5 µM), -0.892 in the assay on Ov4Carbo (carboplatin co-treatment 0 µM) and -1.16 in the assay with Ov4Carbo (carboplatin co-treatment 5 µM).

For the compound `O=C(O)CCc1nc2ccccc2[nH]1` [Procodazole], the log2 surviving fraction was -0.658 in the assay with OVCAR4 (carboplatin co-treatment 0 µM), -0.87 in the assay with OVCAR4 (carboplatin co-treatment 5 µM), -0.535 in the assay with Ov4Carbo (carboplatin co-treatment 0 µM) and 0.64 with Ov4Carbo (carboplatin co-treatment 5 µM).

With `CCOC(=O)OC(C)OC1=C(C(=O)Nc2ccccn2)N(C)S(=O)(=O)c2ccccc21` (stereo unspecified) [Ampiroxicam], the log2 surviving fraction came to 0.513 in the assay with OVCAR4 (carboplatin co-treatment 0 µM), 0.565 with OVCAR4 (carboplatin co-treatment 5 µM), 0.213 in the assay on Ov4Carbo (carboplatin co-treatment 0 µM) and 0.978 with Ov4Carbo (carboplatin co-treatment 5 µM).

As for `CC(C(=O)O)c1ccc(C(=O)c2cccs2)cc1` (stereo unspecified) [Suprofen (Profenal)], the log2 surviving fraction is -7.09 in the assay on OVCAR4 (carboplatin co-treatment 0 µM), -2.17 with OVCAR4 (carboplatin co-treatment 5 µM), -0.458 in the assay with Ov4Carbo (carboplatin co-treatment 0 µM) and -0.0835 in the assay on Ov4Carbo (carboplatin co-treatment 5 µM).

The values above are taken from the supplement of paper PMC8047034.
